Results: patent publication US20080138836A1, “KINASE AND UBIQUINATION ASSAYS” (INVITROGEN CORPORATION, priority 2006, published 2008)

Molecular target: Tb-chelate labeled anti-pSer133 antibody
Assay: TR-RET titration of the tracer against the Tb-labeled antibody

LRREILSRRP[pS]YRK-Fluorescein [Tracer 4: …(pS)YRK-Fluorescein] gave a fold change in TR-RET value between free and bound forms of 32 fold.

Square brackets hold non-standard residues; d marks the D form. Ends that are not written are not given here. pS = N[C@@H](COP(=O)(O)O)C(=O)O
